Data as given in the supplement of paper PMC10681739.
Whole data set: some 4,100 sequences, median “arbitrary fluorescence units” near 780, cut for the highest 2% near 22,000. This is one part of the list.

These sequences were tested against T1, ETS1 (UniProt P14921) (assay: ETS1 binding intensity (PBM fluorescence), ETS1 alone (arbitrary fluorescence units); higher = stronger binding). Details: ETS1 concentration 1 nM; RUNX1 concentration 0 nM.
T1 sequence: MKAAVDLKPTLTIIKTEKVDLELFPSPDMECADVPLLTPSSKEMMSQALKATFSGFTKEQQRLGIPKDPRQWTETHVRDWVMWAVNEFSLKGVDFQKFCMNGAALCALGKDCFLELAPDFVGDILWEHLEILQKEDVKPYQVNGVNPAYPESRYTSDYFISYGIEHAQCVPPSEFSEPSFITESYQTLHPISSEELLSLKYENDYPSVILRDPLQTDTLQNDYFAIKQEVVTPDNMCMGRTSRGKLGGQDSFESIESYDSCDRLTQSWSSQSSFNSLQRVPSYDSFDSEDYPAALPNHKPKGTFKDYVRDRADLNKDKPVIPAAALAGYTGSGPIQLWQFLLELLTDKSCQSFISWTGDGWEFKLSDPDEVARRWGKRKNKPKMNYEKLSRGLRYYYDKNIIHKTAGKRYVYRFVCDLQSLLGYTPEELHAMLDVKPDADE
Summary of the method: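 Full-length recombinant human ETS1 (1 nM, no RUNX1) was incubated, per standard PBM protocols, on double-stranded Agilent 4 × 180k arrays of 36-bp genomic probes whose RUNX1 partner site was mutated. Bound ETS1 was detected with anti-ETS1 antibody (Cell Signaling Technology 14069) and Alexa488-conjugated secondary antibody, then scanned on a GenePix 4400A. Binding level is spot fluorescence intensity, summarised over replicate spots (four printed per sequence) and not normalised.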

Sequence | ETS1 binding intensity
CCTAAAACCCAGTTCCGGGACCCAGCGCTGAAGGTC | 1900
TGTTGACTCAGGAAGATGATGGCTGAGGGGGCTGCA | 509
GTTGAGGTGTCCCACTAACCAAACAGGATGTGGGGG | 1740
TGCGCTCGATTGTGAGCGGGGGCGGAAAGAGGCGCC | 471
CATGGCCCTGGGGCTGGACCGGACGCGGCGGCTGCA | 576
TTGTTGTAGTTCTACGTCACGTGGTCCCGGAAGTTC | 662
CGTTCTCTCATTTCCTGTGTGCACCCTCATGAACCA | 15600
AGAGCCACATCCCGCGCAGAGGACAGCGGCGACCGG | 1290
AGAATCCGCTGGGCGGAGCAGCGGGAGGAAGCTGCA | 927
TTGCTTTATCACTTCCTGTTTGAGCTTTATATCCAT | 21400
CTGGAACAGCAGGATCCTTGCTGCTTCCTCTCGGTC | 527
CTGCAGCGGGGATCCTTGGGGCCCTTCCGGTCGGTG | 2190
AGGCAATCTGGGGCTGTAGTTTCCTCAGTTCAGGCT | 335
TAAACCCTGCTTCCTGTCCCTGCGCCCCACTAGGAG | 9870
GCCCCGCCTACAGAGGAGGGTACCCCGCCGGAAGCC | 473
CAGGGGCCGCTGTCGCGCTCCTCGCGGCCGGAAGAG | 420
TGGCGGCTCTGGGGATTTGCCGGAAGGTTAATAATG | 383
GACACTCATCCTGACTCCACTCGCCTGCAGGCAGGC | 549

Sequence | ETS1 binding intensity
TTCTATCCTGCCTTGCATGTCTTTAATCACACTGAG | 1540
CTACAGTTTAATCACAGAGTTTCCTCCTTAACGTAA | 619
GCCCCAGGAAGAGCGCTCCCGCGAACTGCGCCGGTG | 477
TACAGCTTCCTTCACCCCACTTGGGGCCTGGGTTAC | 1140
GGTGGGAGTGAGCACAACACTTCCTGCCCTCTTCCA | 3330
CTTTAAGGAGGCGGAAAAGTTAACAGCGATGGGCAG | 398
TCCGTGACGTGAGGTGTAGTTGGGGAAACGCACCGT | 325
AGGCAAAAGTCACAGCCACACAGGATGGGGCCTCCC | 403
TCCTAAAGCAGGAAATAGTGAGGCTACCGAAGTGTC | 3730
CCCTGAGCACTTCCCCGTAAGGCTGGGGTGCACGGG | 645
GTTCTCAGCTTCCTGTTCACAGAGAAACGTCAGACA | 14100
TATTCTTGCTTGTAGTTATTTGCATCCTGTTGCTCT | 1010
TATTACTTCAGGAAGCCCAGGGGGAATCGCGCCCCG | 478
CTGCAGTGATGAGGCGAAAGGGATCCCGGAAAAGCC | 412
CCGCGGCGGAACCCGAGGGCGGCGGCAGCGGATTCC | 352
GGGCTGGCTGCTACGGCAGCATTTCCTGACTTCTTC | 1000
TGGCACCCCCTTCGGCAGTCCCGGATCCGAGCAACC | 309
